# Measurements: paper PMC11995724, “Antibiotic target discovery by integrated phenotypic and activity-based profiling of electrophilic fragments” (Cell chemical biology, 2025)
# In all, about 3,200 compounds went through this assay and about 110 (3.4%) showed an effect of 50% or more. The list shows a part of the results.
# Tested on: T1, V. cholerae SAD30
# T1 construct: SAD30
# Design: species or system S. aureus MSSA476 (TSB) or V. cholerae SAD30 (LB); 384-well bacterial growth screen at 25 uM, OD600 relative to DMSO control
# Conditions: relative growth, OD600, LB; 25 µM; inhibitor
row,Structure (SMILES),% of control remaining [%]
1,"COc1ccccc1CN1C(=O)C=CC1=O [10-P21, 1-[(2-methoxyphenyl)methyl]-2,5-dihydro-1H-pyrrole-2,5-dione]",42.8599
2,"CC(Cl)C(=O)NCCc1csc(N2CCCC2)n1 (stereo not shown) [7-O08, 2-chloro-N-{2-[2-(pyrrolidin-1-yl)-1,3-thiazol-4-yl]ethyl}propanamide]",73.0877
3,"COc1ccccc1NC(=O)C(C#N)=Cc1ccccc1F [8-E11, 2-cyano-3-(2-fluorophenyl)-N-(2-methoxyphenyl)prop-2-enamide]",73.2155
4,"CCOc1ccc(-n2c(C)cc(C(=O)CCl)c2C)cc1 [10-K08, 2-chloro-1-[1-(4-ethoxyphenyl)-2,5-dimethyl-1H-pyrrol-3-yl]ethan-1-one]",98.9675
5,"C=CC(=O)N1CCC(NC(C)=O)(c2noc(C)n2)C1 (stereo not shown) [2-G16, N-[3-(5-methyl-1,2,4-oxadiazol-3-yl)-1-(prop-2-enoyl)pyrrolidin-3-yl]acetamide]",100.077
6,"C=CC(=O)NC1CCC(n2c(C)ccc2C)CC1 (stereo not shown) [2-E19, N-[4-(2,5-dimethyl-1H-pyrrol-1-yl)cyclohexyl]prop-2-enamide]",98.2245
7,"N#CC(=Cc1ccc(Cl)cc1Cl)C(=O)Nc1nccs1 [9-H19, 2-cyano-3-(2,4-dichlorophenyl)-N-(1,3-thiazol-2-yl)prop-2-enamide]",79.4697
8,"C=CC(=O)Nc1nc2cc(C(F)(F)F)ccc2n1Cc1ccco1 [1-G11, N-{1-[(furan-2-yl)methyl]-5-(trifluoromethyl)-1H-1,3-benzodiazol-2-yl}prop-2-enamide]",79.8206
9,"C=CC(=O)NC(c1ccc(F)cc1)C1CC1 (stereo not shown) [3-H20, N-[cyclopropyl(4-fluorophenyl)methyl]prop-2-enamide]",91.0311
10,"COc1ccc(-n2c(C)cc(C(=O)CCl)c2C)cc1 [10-I12, 2-chloro-1-[1-(4-methoxyphenyl)-2,5-dimethyl-1H-pyrrol-3-yl]ethan-1-one]",93.9801
11,"Cn1cc(C=C(C#N)C(=O)NC2CCCC2)c(-c2ccncc2)n1 [9-L16, 2-cyano-N-cyclopentyl-3-[1-methyl-3-(pyridin-4-yl)-1H-pyrazol-4-yl]prop-2-enamide]",87.6275
12,"C=CC(=O)N(Cc1ccc(-n2cncn2)cc1)C1CC1 [3-J11, N-cyclopropyl-N-{[4-(1H-1,2,4-triazol-1-yl)phenyl]methyl}prop-2-enamide]",88.9138
13,"C=CC(=O)Nc1c(C)ccn2ncnc12 [2-M08, N-{7-methyl-[1,2,4]triazolo[1,5-a]pyridin-8-yl}prop-2-enamide]",90.3503
14,"C=CC(=O)Nc1ccc(C(=O)N2CCCCC2c2n[nH]c(C)n2)cc1 (stereo not shown) [3-E13, N-{4-[2-(5-methyl-1H-1,2,4-triazol-3-yl)piperidine-1-carbonyl]phenyl}prop-2-enamide]",93.6776
15,"C=CC(=O)N(Cc1cc(C)cc2c(C)c(C)[nH]c12)CC1(C)COC1 [2-E07, N-[(3-methyloxetan-3-yl)methyl]-N-[(2,3,5-trimethyl-1H-indol-7-yl)methyl]prop-2-enamide]",79.5426
16,"C=CC(=O)N(Cc1cccs1)C1CCc2cnn(C(C)C)c2C1 (stereo not shown) [1-L15, N-[1-(propan-2-yl)-4,5,6,7-tetrahydro-1H-indazol-6-yl]-N-[(thiophen-2-yl)methyl]prop-2-enamide]",81.1659
17,"CC(Cl)C(=O)NC1CCc2cnn(C(C)C)c2C1 (stereo not shown) [7-H05, 2-chloro-N-[1-(propan-2-yl)-4,5,6,7-tetrahydro-1H-indazol-6-yl]propanamide]",87.4938
18,"O=C(CCl)Nc1cc(-c2ccccc2)nn1-c1ccccc1 [4-A20, 2-chloro-N-(1,3-diphenyl-1H-pyrazol-5-yl)acetamide]",107.656
19,"CCOc1cc(C=C(C#N)C(=O)NC(C)C)cc(Cl)c1O [9-I13, 3-(3-chloro-5-ethoxy-4-hydroxyphenyl)-2-cyano-N-(propan-2-yl)prop-2-enamide]",84.9082
20,"Cc1cccc(C)c1NC(=O)C(C#N)=Cc1c(C)n[nH]c1C [8-O20, 2-cyano-3-(3,5-dimethyl-1H-pyrazol-4-yl)-N-(2,6-dimethylphenyl)prop-2-enamide]",75.3909
21,"N#CC(=Cc1cccc(Cl)c1Cl)C(=O)NCCc1ccccc1 [8-J06, 2-cyano-3-(2,3-dichlorophenyl)-N-(2-phenylethyl)prop-2-enamide]",78.9259
22,"CC(Cl)C(=O)N1CCCCCC1 (stereo not shown) [5-F11, 1-(azepan-1-yl)-2-chloropropan-1-one]",91.2893

row,Structure (SMILES),% of control remaining [%]
1,"C=CC(=O)N(CC)CC(=O)Nc1ccc2c(c1)nc1n2CCCCC1 [3-M19, N-[({1,8-diazatricyclo[7.5.0.0,2,7]tetradeca-2,4,6,8-tetraen-5-yl}carbamoyl)methyl]-N-ethylprop-2-enamide]",96.6771
2,"C=CC(=O)Nc1ccc2oc(CC(C)(C)C)nc2c1 [3-K18, N-[2-(2,2-dimethylpropyl)-1,3-benzoxazol-5-yl]prop-2-enamide]",84.5028
3,"Cc1cc(CN(C(=O)CCl)c2csnc2C)cs1 [5-C12, 2-chloro-N-(3-methyl-1,2-thiazol-4-yl)-N-[(5-methylthiophen-3-yl)methyl]acetamide]",101.376
4,"Cc1nn(C)c(N2CCCN(C)CC2)c1CNC(=O)C(C)Cl (stereo not shown) [6-N17, 2-chloro-N-{[1,3-dimethyl-5-(4-methyl-1,4-diazepan-1-yl)-1H-pyrazol-4-yl]methyl}propanamide]",91.6106
5,"CC(Cl)C(=O)Nc1ccc(OC(F)F)c(Cl)c1 (stereo not shown) [4-F18, 2-chloro-N-[3-chloro-4-(difluoromethoxy)phenyl]propanamide]",60.5564
6,"C=CC(=O)N1CCCC(c2nc(C)no2)C1 (stereo not shown) [2-K12, 1-[3-(3-methyl-1,2,4-oxadiazol-5-yl)piperidin-1-yl]prop-2-en-1-one]",86.0272
7,"O=C(CCl)Nc1ccc(S(=O)(=O)C(F)F)cc1 [4-N16, 2-chloro-N-(4-difluoromethanesulfonylphenyl)acetamide]",111.279
8,"CC(Cl)C(=O)NC(C)C(=O)N1CCc2ccccc21 (stereo not shown) [7-M21, 2-chloro-N-[1-(2,3-dihydro-1H-indol-1-yl)-1-oxopropan-2-yl]propanamide]",81.9428
9,"C=CC(=O)N1CCCC(n2cc(C)cn2)C1 (stereo not shown) [3-M12, 1-[3-(4-methyl-1H-pyrazol-1-yl)piperidin-1-yl]prop-2-en-1-one]",95.9713
10,"COc1ccc2ccccc2c1C=C(C#N)C(=O)NC1CCCCC1 [8-P18, 2-cyano-N-cyclohexyl-3-(2-methoxynaphthalen-1-yl)prop-2-enamide]",68.8647
11,"C=CC(=O)NCc1cc(-c2ccco2)on1 [1-A21, N-{[5-(furan-2-yl)-1,2-oxazol-3-yl]methyl}prop-2-enamide]",97.0105
12,"O=C(CCl)N1N=C(c2ccco2)CC1c1cccc(Cl)c1 (stereo not shown) [5-M17, 2-chloro-1-[5-(3-chlorophenyl)-3-(furan-2-yl)-4,5-dihydro-1H-pyrazol-1-yl]ethan-1-one]",105.748
13,"O=C(CCl)NC(Cc1ccccc1)c1ccccc1F (stereo not shown) [7-N10, 2-chloro-N-[1-(2-fluorophenyl)-2-phenylethyl]acetamide]",82.4715
14,"Cc1cccc(C)c1NC(=O)CCl [5-P20, 2-chloro-N-(2,6-dimethylphenyl)acetamide]",104.235
15,"COc1ccccc1NC(=O)C(C#N)=Cc1ccc(F)cc1 [8-E18, 2-cyano-3-(4-fluorophenyl)-N-(2-methoxyphenyl)prop-2-enamide]",70.6322
16,"C=CC(=O)N1CCC(C(=O)NCC(C)(C)C2(O)CCCC2)CC1 [2-D14, N-[2-(1-hydroxycyclopentyl)-2-methylpropyl]-1-(prop-2-enoyl)piperidine-4-carboxamide]",88.4975
17,"N#CC(=Cc1ccco1)C(=O)NC1CCN(c2ccc(F)cc2F)C1 (stereo not shown) [9-L09, 2-cyano-N-[1-(2,4-difluorophenyl)pyrrolidin-3-yl]-3-(furan-2-yl)prop-2-enamide]",69.1366
18,"C=CC(=O)NCC1CC(CC(=O)O)CO1 (stereo not shown) [2-E03, 2-{5-[(prop-2-enamido)methyl]oxolan-3-yl}acetic acid]",113.51
19,"C=CC(=O)N1CCC(C(=O)Nc2cccc(NC(=O)C(C)C)c2)CC1 [3-F05, N-[3-(2-methylpropanamido)phenyl]-1-(prop-2-enoyl)piperidine-4-carboxamide]",93.3248
20,"C=CC(=O)NC1CCN(c2nnnn2C)CC1 [3-G06, N-[1-(1-methyl-1H-1,2,3,4-tetrazol-5-yl)piperidin-4-yl]prop-2-enamide]",94.9127
21,"COc1cc(C=C(C#N)C(=O)NCc2ccccc2)cc2c1OCCO2 [9-I10, N-benzyl-2-cyano-3-(8-methoxy-2,3-dihydro-1,4-benzodioxin-6-yl)prop-2-enamide]",87.2196
